Source: the supplement of paper PMC3334620
The full ranking holds about 33,000 sequences; the median of “E-score (-0.5 to 0.5)” is about -0.036, and the highest 2% start at about 0.37. Some of the results follow.

Each sequence was assayed against T1, Yer064c (UniProt P40041) (assay: PBM E-score (8-mer binding enrichment) (E-score (-0.5 to 0.5)); higher = stronger / more preferred TF binding; most listed sequences are background and not binding sites). Conditions: protein concentration: 200 nM; construct: GST-full length.
T1 sequence: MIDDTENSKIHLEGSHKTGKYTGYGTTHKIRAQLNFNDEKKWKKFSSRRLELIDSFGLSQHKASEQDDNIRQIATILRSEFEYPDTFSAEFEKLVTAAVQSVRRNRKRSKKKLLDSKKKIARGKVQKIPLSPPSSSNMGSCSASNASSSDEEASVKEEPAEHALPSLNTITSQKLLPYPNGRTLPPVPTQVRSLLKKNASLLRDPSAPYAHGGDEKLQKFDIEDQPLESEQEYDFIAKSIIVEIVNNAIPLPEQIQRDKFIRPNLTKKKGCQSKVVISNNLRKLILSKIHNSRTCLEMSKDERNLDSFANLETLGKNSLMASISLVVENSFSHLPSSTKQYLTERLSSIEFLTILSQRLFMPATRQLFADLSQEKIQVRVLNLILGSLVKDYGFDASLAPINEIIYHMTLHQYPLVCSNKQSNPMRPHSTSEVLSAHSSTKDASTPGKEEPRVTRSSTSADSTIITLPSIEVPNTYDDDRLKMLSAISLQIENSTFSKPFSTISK
Method in brief: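 For each ungapped eight-base word taken together with its reverse complement, the Universal PBM Analysis Suite assigned an E-score. Binding data came from GST-tagged yeast transcription factors, applied at about 100-200 nM, on universal all-10-mer Agilent arrays made double-stranded by primer extension. Fluorescent anti-GST marked bound protein, and scans were normalised with masliner.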

Row | Sequence | PBM E-score
1 | AGTGGTCC | -0.0197
2 | CCTGGTAC | -0.0536
3 | CCAACAAG | -0.187
4 | CGTTACAG | 0.00367
5 | AGGGTTCA | 0.0989
6 | GTTACACA | 0.272
7 | ATCATGTC | 0.27
8 | ATAATAGG | -0.107
9 | ACTGTACT | 0.0382
10 | CTCTATTA | 0.0778
11 | CAGAGGGG | -0.132
12 | AAGGCTAG | -0.0501
13 | ACCCTGTA | -0.189
14 | CGTTGGCC | -0.304
15 | TCGGGGAA | -0.156
16 | CCCACGAC | 0.135
17 | AATTGAGC | 0.0445
18 | CCAACTCC | -0.102
19 | CGGGTTAG | -0.123
20 | AGTCCGCG | 0.188
21 | AAGGTCAG | 0.0065
22 | GGGAACAA | -0.216
23 | CGAGGGAA | -0.0997
24 | CTATTGGC | -0.216
25 | GAGTGAGC | 0.0867

Row | Sequence | PBM E-score
26 | AATTTCAC | -0.0484
27 | ACTCGTCT | 0.233
28 | ACATCTTA | -0.0886
29 | GCGGAGCA | -0.256
30 | AAGCACTC | -0.189
31 | CGCATAGC | -0.218
32 | ACACTGTC | -0.178
33 | ACGAAGAT | 0.158
34 | GAGAATTA | -0.167
35 | AGAATCCA | -0.0782
36 | ACCTCCGG | 0.0501
37 | AAGATATT | 0.00236
38 | GTATGTTA | 0.0292
39 | GATTAGTA | 0.277
40 | CGACTCGC | 0.361
41 | GATTAATA | 0.325
42 | TAAAACAA | 0.107
43 | GGGGAATA | -0.328
44 | ATAACGAC | 0.126
45 | ACCAGACC | -0.0038
46 | CCAACGAC | -0.0267
47 | GTCTCAGA | 0.241
48 | CGATAAAC | -0.175
49 | GTACCGTA | -0.186
50 | ACTGACCT | 0.159

Row | Sequence | PBM E-score
51 | CAAACGTA | 0.0761
52 | GATTGGGC | -0.0362
53 | GGAAAACA | 0.0344
54 | CTCTATCA | -0.0639
55 | ATGTTTTG | 0.0323
56 | CAGTACGG | 0.0228
57 | AGGCTACC | -0.0969
58 | CGCTATAC | -0.175
59 | GCTTGCCC | -0.427
60 | GCGTCAGC | -0.304
61 | AAATTGCA | -0.128
62 | GTCTACGA | 0.0977
63 | AGTTGTCC | -0.122
64 | ATTGAGTC | 0.479
65 | GTCTAACA | 0.171
66 | CGGAACGA | 0.12
67 | GCGCGATA | -0.104
68 | AGGACAAA | 0.0448
69 | TGCAGAAA | -0.0306
70 | TCGGGACA | 0.0953
71 | AGTAGGTG | 0.0443
72 | CATCTATC | -0.165
73 | AAACCGCA | -0.057
74 | GACCCTGA | 0.00081
75 | CACGTTCA | -0.235

Row | Sequence | PBM E-score
76 | CCCGGTTC | -0.00689
77 | CCGGCTTA | -0.221
78 | AAACCCGT | -0.274
79 | CCCTACAG | -0.173
80 | GATTCAGA | 0.389
81 | ACGCTTCA | -0.168
82 | ATCTTCAC | 0.0726
83 | ACATATGT | -0.22
84 | AGCTCCCC | -0.0935
85 | ACAGCGGC | -0.133
86 | CGATCTGA | 0.125
87 | ACGGTGTC | -0.112
88 | CTCTCCAG | -0.183
89 | GACCGCTC | -0.302
90 | CATGGATC | 0.0319
91 | AGTATGCC | -0.109
92 | CTAGCTCA | -0.0873
93 | AGGAGCAA | -0.0586
94 | CTGGTCGA | 0.0583
95 | AATTCGAA | 0.0283
96 | GATAGTTA | -0.0509
97 | ACGGTTTC | -0.26
98 | ACGTCTCA | 0.0883
99 | GCACATAC | -0.187
100 | CACGTGAG | 0.0942

Row | Sequence | PBM E-score
101 | CCGCAAAG | -0.0895
102 | GCCCGATA | -0.117
103 | CGTAGTAA | -0.0636
104 | AATGCGAT | 0.102
105 | ACAGACGA | 0.0376
106 | AATCCAGG | -0.0276
107 | TCCGAGCA | 0.132
108 | AAGATATG | 0.235
109 | GAAGGCAA | -0.216
110 | ACCTAGCA | -0.218
111 | CCAAAGGC | -0.251
112 | AGCCAATC | -0.068
113 | GCTATGAC | 0.307
114 | ACGTCAGC | -0.116
115 | CCGTCACG | -0.199
116 | GAGTGGAA | -0.0569
117 | AGGGCCAA | -0.126
118 | ACCCGCAC | -0.0905
119 | TGATTGCA | 0.307
120 | GACAAATA | -0.106
121 | AGGACTCG | 0.306
122 | CAGGGATC | -0.0249
123 | AGGATTGC | -0.0952
124 | AAATCCCG | -0.21
125 | CAGACGGG | -0.211

Row | Sequence | PBM E-score
126 | ATGATATC | -0.171
127 | CGCCGCTC | -0.201
128 | CCCCACGC | -0.241
129 | ATGAGCCA | 0.396
130 | GGATTAAC | 0.234
131 | CCCGCCTA | -0.12
132 | CGTCTAGC | -0.0946
133 | AATAAGAC | 0.175
134 | AAGCCCGA | -0.0794
135 | ATCGACCA | -0.0913
136 | CGAGAATC | 0.117
137 | ACACAATC | 0.118
138 | TGTCAGAA | -0.00325
139 | ATGCAACC | -0.254
140 | ACGTTGAA | -0.0933
141 | GCTACAAA | -0.00422
142 | AAGGATGA | 0.162
143 | CATGCACG | -0.143
144 | CACTATTC | -0.0863
145 | CTGGACCA | -0.113
146 | AAGAGATG | 0.068
147 | AAGTTCGG | -0.176
148 | GGTGCCAA | -0.0963
149 | ACACTTGG | 0.0249
150 | ATCGGCTC | -0.013

Row | Sequence | PBM E-score
151 | ACTTCGAG | -0.00878
152 | AGAATTCC | -0.0704
153 | AGGTAGGG | -0.121
154 | AAACATCA | 0.026
155 | AGACGTTA | 0.0328
156 | GACCTTGA | 0.0411
157 | GGGTCTAC | -0.143
158 | GGTCAGGA | -0.138
159 | CTGTTAGA | 0.0663
160 | GGATAGCA | -0.0707
161 | CTTCCTAC | -0.295
162 | CTAACTTA | 0.0276
163 | GAACCAGC | 0.0889
164 | ATAGTGTG | 0.0492
165 | GCACCTGC | -0.266
166 | CACGGATC | -0.127
167 | ACCTAAAT | 0.057
168 | ATCGCAGA | 0.0583
169 | ACTAAGCG | 0.2
170 | ACCCTAAC | -0.114
171 | GTGAGTGA | 0.225
172 | GACTACAC | 0.399
